# “And” between values parts separate entries of the source, which are not always exact repeats. Equal values may be shown once. In all, about 5,300 compounds were measured (“PER2::LUC luminescence relative to vehicle control”: median about 0.96, highest 2% from about 1.3 on). Some of the results follow.
# System: mPer2Luc MEF
# Experiment: PER2::LUC luminescence relative to vehicle control (fold of vehicle); higher = higher PER2::LUC reporter signal
# Settings: 10 µM
# How it was run: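 Mouse embryonic fibroblasts carrying the mPer2Luc reporter were seeded at ~3000 cells per well in 384-well plates, 48 h before compounds from commercial libraries were added at 10 μM. Cells were grown in DMEM with 10% FBS at 37 °C and 5% CO2. Luminescence was read with the ONE-Glo luciferase assay system 24 h and 30 h after treatment, followed by an alamarBlue viability assay. The value is PER2::LUC luminescence as fold of vehicle control.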
SMILES,PER2::LUC luminescence (time after treatment 24 h),PER2::LUC luminescence (time after treatment 30 h)
C=C(C)[C@@H]1CC=C(CO)CC1,0.845,0.856
c1ccc(CNc2ncnc3nc[nH]c23)cc1,0.886,1.24
COc1cccc(C(=O)NCCN2CCN(c3ccc(Cl)cc3)CC2)c1,0.833,0.96
CC(=O)Oc1cccc(C)c1,1 and 0.978,0.971 and 0.973
O=C(Nc1ccccc1)Nc1ccc(-c2ccc(C(=O)[C@@H]3CCC[C@H]3C(=O)O)cc2)cc1,1.18,1.16
FC(F)(F)COCC(F)(F)F,0.965,0.954
CN1Cc2c(N)cccc2C(c2ccccc2)C1 (stereo not drawn),0.908,0.859
CN(C)C/C=C/C(=O)Nc1cc2c(Nc3ccc(F)c(Cl)c3)ncnc2cc1O[C@H]1CCOC1,0.143 and 0.099 and 0.084,0.115 and 0.096 and 0.072
O=C1NC(=O)C(c2ccccc2)(c2ccccc2)N1,0.908,0.86
CC(C)(O)c1ccccc1CC[C@@H](SCC1(CC(=O)O)CC1)c1cccc(/C=C/c2ccc3ccc(Cl)cc3n2)c1,1.05 and 1.02,0.978 and 1.25
O=C1NC(=O)C(=Cc2ccc(-c3ccc(F)cc3)o2)S1 (stereo in doubt),1.16,1.17
CCN[C@@H]1C[C@H](N)[C@@H](O[C@H]2OC(CN)=CC[C@H]2N)[C@H](O)[C@H]1O[C@H]1OC[C@](C)(O)[C@H](NC)[C@H]1O,1.14,0.805
COc1ccc2c(=O)c(CC(=O)O)coc2c1,0.908,0.978
C[C@@H]1O[C@@H](O[C@@H]2[C@@H](O)[C@H](O)[C@@H](CO)O[C@H]2c2c(O)cc(O)c3c(=O)cc(-c4ccc(O)cc4)oc23)[C@H](O)[C@H](O)[C@H]1O,1.04,0.979
CNc1ccccc1C(=O)N1CCc2c([nH]c3ccccc23)C1=O,1.56,1.79
Cc1cc(N)c2ccccc2[n+]1CCCCCCCCCC[n+]1c(C)cc(N)c2ccccc21,0.684 and 0.678,0.593 and 0.545
Nc1ccn([C@@H]2CS[C@H](CO)O2)c(=O)n1,1.14,0.884
Nc1c2c(nc3ccccc13)CCCC2O (stereo not drawn),0.853,0.991
O=C1NCCCc2c1oc1ccc(O)cc21,0.85,0.922
COc1ccccc1OCC(O)COC(N)=O (stereo not drawn),1.07,0.939
Oc1cc2c(cc1O)C(c1ccccc1)CNCC2 (racemic),0.807,0.855
NC1CCN(c2nc3c(cc2F)c(=O)c(C(=O)O)cn3-c2ccc(F)cc2F)C1 (stereo not drawn),1.12,1.06

SMILES,PER2::LUC luminescence (time after treatment 24 h),PER2::LUC luminescence (time after treatment 30 h)
C=CCCCCCCCCC(=O)[O-].C=CCCCCCCCCC(=O)[O-].[Zn+2],1.24,0.994
CCNC(=O)/C=C/c1cccc(Br)c1,1.01,1.16
C[C@@H]1C(=O)NC2=Nc3cccc(Cl)c3CN21,0.982,0.951
O=c1cc(-c2ccccc2)oc2cccc(O)c12,1.25,1.42
COC(=O)Nc1nc2cc([S+]([O-])c3ccccc3)ccc2[nH]1 (stereo not drawn),0.713,1.07
CCC(=O)Nc1cccc(Oc2nc(Nc3ccc(N4CCN(C)CC4)cc3OC)ncc2Cl)c1,0.432,0.449
N#Cc1c(NC(=O)c2cccc3ccccc23)sc2c1CCCC2,0.4,0.466
CCCOc1ccc(S(=O)(=O)N2CCN(CCO)CC2)cc1-c1nc2c(CCC)cn(CC)c2c(=O)[nH]1,0.679,0.717
C=CC(=O)Nc1cccc(Nc2nc(Nc3ccc(OCCOC)cc3)ncc2F)c1,0.619 and 0.585,0.661 and 0.564
O=C(O)CP(=O)(O)O,0.9,0.964
Cn1ccc2cc3c(cc21)CCN3C(=O)Nc1cccnc1,0.855,0.965
N#CC(C#N)=C(N)/C(C#N)=C/c1cc(O)c(O)c(O)c1,0.816,0.979
CC(C)C(C)C(O)C(O)C(C)C1CCC2C3COC(=O)C4CC(O)C(O)CC4(C)C3CCC12C (stereo not drawn),0.891,0.88
CCN(CC)CCCCCCCCOC(=O)c1cc(OC)c(OC)c(OC)c1,0.846,0.848
CO/N=C(\C(=O)N[C@@H]1C(=O)N2C(C(=O)OC(C)OC(C)=O)=C(COC(N)=O)CS[C@H]12)c1ccco1 (stereo partly drawn),1.02 and 1.01,1.09
C=CCOC(Cn1ccnc1)c1ccc(Cl)cc1Cl (stereo not drawn),1.29 and 0.968,1.31 and 0.96
O=C(/C=C/c1ccc(O)c(O)c1)O[C@@H]1C[C@](O)(C(=O)O)C[C@@H](O)[C@H]1O,1.8,1.28
C[C@@H]1O[C@@H](OC[C@H]2O[C@@H](Oc3cc(O)c4c(=O)cc(-c5ccc(O)cc5)oc4c3)[C@H](O)[C@@H](O)[C@@H]2O)[C@H](O)[C@H](O)[C@H]1O,0.948,0.927
C[C@@H]1COC(Nc2ccc3ncnc(Nc4ccc(OCc5nccs5)c(Cl)c4)c3c2)=N1,1.01,0.887
CC(=O)OCC(=O)[C@H]1CC[C@H]2[C@@H]3CCC4=CC(=O)CC[C@]4(C)[C@H]3CC[C@]12C,0.632,0.962
Cc1cc(SCc2sc(-c3ccc(C(F)(F)F)cc3)nc2C)ccc1OCC(=O)O,0.941,1.01
C#CCn1c(=O)c2c(ncn2C)n(C)c1=O,0.933,0.858

# Source: the supplement of paper PMC9334596
